Experimental findings from paper PMC4336329 (PLoS ONE, 2015) are described below.

Structures are written as SMILES. In all, about 310,000 compounds went through this assay and about 14,000 (4.5%) showed an effect of 50% or more. The effect is printed as a negative number. The list shows a part of the results.
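Also: peak tail current of the secondary pulse compared with the same well before compound.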

Chain of human ether-à-go-go-related gene (hERG) potassium channel (Q12809 whole entry, looked up): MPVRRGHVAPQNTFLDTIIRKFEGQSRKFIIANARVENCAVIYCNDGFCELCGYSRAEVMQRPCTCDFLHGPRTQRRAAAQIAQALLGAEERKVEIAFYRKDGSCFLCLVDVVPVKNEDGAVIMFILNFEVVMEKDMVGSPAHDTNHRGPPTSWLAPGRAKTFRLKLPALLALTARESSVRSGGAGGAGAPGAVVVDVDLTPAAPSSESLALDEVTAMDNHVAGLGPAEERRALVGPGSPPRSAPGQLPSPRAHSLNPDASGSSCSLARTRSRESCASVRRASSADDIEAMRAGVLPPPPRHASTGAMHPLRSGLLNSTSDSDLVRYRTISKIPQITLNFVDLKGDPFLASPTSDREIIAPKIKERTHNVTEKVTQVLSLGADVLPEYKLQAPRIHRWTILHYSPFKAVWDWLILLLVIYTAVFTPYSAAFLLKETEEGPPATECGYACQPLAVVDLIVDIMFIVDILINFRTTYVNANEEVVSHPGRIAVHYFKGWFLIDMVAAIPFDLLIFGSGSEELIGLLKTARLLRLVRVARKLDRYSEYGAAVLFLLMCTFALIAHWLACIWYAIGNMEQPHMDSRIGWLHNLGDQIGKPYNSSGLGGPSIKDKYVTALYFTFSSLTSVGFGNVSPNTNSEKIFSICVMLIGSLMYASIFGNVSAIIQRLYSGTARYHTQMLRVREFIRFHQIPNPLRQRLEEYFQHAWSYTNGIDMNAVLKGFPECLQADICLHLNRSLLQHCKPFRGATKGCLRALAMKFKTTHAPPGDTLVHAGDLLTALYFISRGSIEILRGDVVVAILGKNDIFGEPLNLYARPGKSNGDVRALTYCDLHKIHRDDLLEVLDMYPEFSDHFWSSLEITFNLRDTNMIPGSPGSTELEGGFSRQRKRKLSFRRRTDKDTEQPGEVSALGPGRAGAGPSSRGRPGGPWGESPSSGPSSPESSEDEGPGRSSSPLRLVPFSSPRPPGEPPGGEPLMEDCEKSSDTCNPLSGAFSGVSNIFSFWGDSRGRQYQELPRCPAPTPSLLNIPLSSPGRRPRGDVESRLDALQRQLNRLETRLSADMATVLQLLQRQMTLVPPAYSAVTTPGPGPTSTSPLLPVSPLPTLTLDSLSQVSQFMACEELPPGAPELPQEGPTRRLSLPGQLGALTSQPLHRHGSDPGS

The assay concerns the target human ether-à-go-go-related gene (hERG) potassium channel (human, UniProt Q12809). The assay is described as follows: primary screen, population patch clamp on CHO cells stably expressing hERG.
In the case of `O=C(Oc1cccc(NC(=O)c2ccco2)c1)c1ccc(Br)c(S(=O)(=O)N2CCCCC2)c1`, the “hERG current change (%, negative = inhibition) at 10uM” value was determined as 7.55%. Then `Cc1nn(-c2ccccc2)c2c1C(c1ccccc1)C(C#N)=C(N)O2` (stereo not drawn), with 1.86%; and `OCCC1CN(Cc2ccc(Oc3ncccn3)cc2)CCN1CCc1ccccc1` (stereo not drawn), with -55.2%. Then `CCOC(=O)c1c(-c2ccc(OC)cc2)csc1NC(=O)CNCc1ccco1`, with 2.2%; and `Cc1n[nH]c(=S)n1/N=C/c1ccc(-c2ccc(Cl)cc2)o1`, with 17.9%. `CC1(C)CC(=O)C(C=NCCN2CCN(CC(=O)Nc3ccccc3)CC2)=C(O)C1`: the “hERG current change (%, negative = inhibition) at 10uM” value is -5.37%. In the case of `Cc1cc(NCCCN)nc(-c2ccccc2O)n1`, the “hERG current change (%, negative = inhibition) at 10uM” value is 10%. Consider `Cc1ccccc1NC(=O)C1CCCN(S(=O)(=O)c2cnc[nH]2)C1` (stereo not drawn), for which the “hERG current change (%, negative = inhibition) at 10uM” value is -10.3%. In the case of `O=C(O)c1ccc(/C=N\Nc2ccc(S(=O)(=O)N3CCOCC3)cc2[N+](=O)[O-])cc1`, the “hERG current change (%, negative = inhibition) at 10uM” value is listed as -9.35%. In the case of `COc1ccc(-c2cn[nH]c2-c2ccc(OC)cc2)cc1` it was 8.51%; in that of `O=C(CN1CCN(S(=O)(=O)c2cccc(Cl)c2)CC1)NCC1(N2CCOCC2)CCCCC1`, -24.9%; in that of `Cc1ccc2cccc(OCCOCCOc3ccccc3Br)c2n1`, -1.98%. Then `CC(C)CCC(C)NC(=O)c1ccc2nccnc2c1` (stereo not drawn), with 0.52%. In the case of `COc1ccc(C2N=C(c3ccccc3)C(C)(C)N2O)cc1` (stereo not drawn), the “hERG current change (%, negative = inhibition) at 10uM” value worked out at 6.96%. With `CCOc1cc(N2CCOCC2)c(OCC)cc1NC(=O)COC(=O)c1cc(C)oc1C`, the “hERG current change (%, negative = inhibition) at 10uM” value is -0.0866%. Turning to `Cc1ccc(-c2cc(C(=O)N/N=C/c3c(C)nn(C)c3C)c3ccccc3n2)cc1C`, the “hERG current change (%, negative = inhibition) at 10uM” value was determined as 12.6%. In the case of `CCCC(C)C(=O)Nc1nnc(CCc2ccccc2)s1` (stereo not drawn) it was 0.648%; in that of `COc1cc(NC(=O)CN2CCN(S(=O)(=O)c3ccc(C(C)C)cc3)CC2)cc(OC)c1`, -11.5%; in that of `COC(=O)/C(=C\c1cc(OC)c(OC)c(OC)c1)c1nc2ccccc2[nH]1.Cl`, 19%. Consider `Cc1cc2oc(=O)cc(CN3CCCCC3)c2cc1C`, for which the “hERG current change (%, negative = inhibition) at 10uM” value turned out to be 19.9%.

`c1ccc(-c2ccc(-c3ccccn3)s2)nc1`: the “hERG current change (%, negative = inhibition) at 10uM” value was -8.87%. Consider `Cc1onc(-c2c(Cl)cccc2Cl)c1NC(=O)NN(C)C`, for which the “hERG current change (%, negative = inhibition) at 10uM” value was found to be 20.6%. With `O=C1CN(C(=O)COc2ccc([N+](=O)[O-])cc2Cl)c2ccccc2N1`, the “hERG current change (%, negative = inhibition) at 10uM” value is on record as -61.2%.

`CCOc1ccccc1N(CC(=O)NC1CCCC1)C(=O)CNC(=O)c1cccs1`: the “hERG current change (%, negative = inhibition) at 10uM” value is -3.75%. Take `Cc1ccccc1NC(=O)CCN1CCN(CCO)CC1`: the “hERG current change (%, negative = inhibition) at 10uM” value came out at 15.6%. For the compound `CCCN(Cc1ccccc1)C(=S)Nc1ccc(OCC)cc1`, the “hERG current change (%, negative = inhibition) at 10uM” value is -35.8%. Turning to `COc1ccc(OC)c(-c2nc(CN3CCCCC3c3cccnc3)c(C)o2)c1` (stereo not drawn), the “hERG current change (%, negative = inhibition) at 10uM” value was -1.11%.

With `COc1ccc(CC2(CO)COc3ccccc3C2=O)cc1` (stereo not drawn), the “hERG current change (%, negative = inhibition) at 10uM” value is listed as -0.5%. In the case of `C#CCSc1nnc(-c2ccc(OC)cc2)o1` it was -14.3%; in that of `CC(=O)OCC(=O)[C@@]12OC(C)(C)O[C@@H]1CC1C3C[C@H](F)C4=CC(=O)C=CC4(C)[C@@]3(F)C(O)CC12C` (stereo partly drawn), 17.6%. For the compound `Cl.OC(CNCc1ccc(-c2ccccc2)cc1)c1ccccc1` (stereo not drawn), the “hERG current change (%, negative = inhibition) at 10uM” value is -16.1%. For `CCN1CCN(S(=O)(=O)c2ccc(Cl)c(C(=O)N(C)Cc3ccc(F)cc3)c2)CC1`, the “hERG current change (%, negative = inhibition) at 10uM” value was -25.1%. Take `COc1ccc(S(=O)(=O)N(CC(=O)NCc2cccnc2)c2ccc(F)cc2)cc1OC`: the “hERG current change (%, negative = inhibition) at 10uM” value is given as 4.62%. With `Cc1ccc(C(=O)N2CCC(C(=O)NC3CCCCCC3)CC2)cc1`, the “hERG current change (%, negative = inhibition) at 10uM” value is reported as 11%.

As for `CCOc1cc(N2CCOCC2)c(OCC)cc1NC(=O)Cc1cccc(OC)c1`, the “hERG current change (%, negative = inhibition) at 10uM” value is recorded as -11%. Then `CCCOC(=O)c1ccc(NC(=O)C2C3CCC(C3)C2C(=O)O)cc1` (stereo not drawn), with 9.04%.

Regarding `CN1CC2(C(=O)c3ccccc3)CN(C)CC(C(=O)c3ccccc3)(C1)C2`, the “hERG current change (%, negative = inhibition) at 10uM” value is -53%. Then `Cc1cc(OC(=O)N(C)C)nc(-c2ccc(C)c(Cl)c2)n1`, with -4.35%; and `CC(=O)C1=C(O)C(=O)N(CCCn2ccnc2)C1c1ccc(Cl)cc1` (stereo not drawn), with 7.44%.

On to `CCCCNC(=O)CSc1nc2ccccc2n1S(=O)(=O)c1ccc(Br)cc1`, for which the “hERG current change (%, negative = inhibition) at 10uM” value is given as -0.913%.

In the case of `O=c1c2ccccc2c2ccccc2c(=O)n1Cc1cccnc1`, the “hERG current change (%, negative = inhibition) at 10uM” value turned out to be 8.14%.

For `CN(CC(=O)Nc1cccc(F)c1)C(=O)c1ccccc1CCc1ccccc1`, the “hERG current change (%, negative = inhibition) at 10uM” value turned out to be 3.08%. On to `CS(=O)(=O)Oc1ccc(Br)cc1/C=C1/N=C(c2ccco2)OC1=O`, for which the “hERG current change (%, negative = inhibition) at 10uM” value was 8.3%.

Turning to `CCOc1ccccc1CN1CCC(n2nccc2NC(=O)CCc2ccccc2)CC1`, the “hERG current change (%, negative = inhibition) at 10uM” value is -38.6%.

On to `CC(C)c1nnc(NC(=O)c2nc(S(=O)(=O)Cc3ccc(F)cc3)ncc2Cl)s1`, for which the “hERG current change (%, negative = inhibition) at 10uM” value is reported as -1.12%. In the case of `O=C(NC1CCCc2ccccc21)C1CCN(S(=O)(=O)c2ccccc2)CC1` (stereo not drawn) it was -5.8%; in that of `O=C(O)CSc1nc2ccc(Cl)cc2[nH]1`, 15.4%; in that of `Cn1c(Cl)cnc1C1CC(=O)c2cc(Cl)ccc2O1` (stereo not drawn), -18.3%.

`O=c1[nH]c(C2CCN(S(=O)(=O)/C=C/c3ccccc3)CC2)nc2c1nnn2Cc1ccccc1`: the “hERG current change (%, negative = inhibition) at 10uM” value was -15.6%. For the compound `CCC1(CC)C(=O)C=CNC1=O`, the “hERG current change (%, negative = inhibition) at 10uM” value was -2.7%. Regarding `CC1=NN(c2ccccc2)C(=O)/C1=C/c1c(C)[nH]n(-c2ccc(C)cc2)c1=O`, the “hERG current change (%, negative = inhibition) at 10uM” value is -20.9%. In the case of `CC(Sc1nnc(CC(C)c2ccccc2)n1N)C(N)=O` (stereo not drawn) it was 7.61%; in that of `COC(=O)c1ccc(C(=S)N2CCCCC2)cc1`, 8.89%; in that of `O=C(CSc1nnc(-c2ccc(Cl)cc2)n1Cc1ccco1)Nc1ccc2c(c1)OCCO2`, -3.51%. In the case of `CCOC(=O)C1CCN(C(=O)Nc2ccc3nc(-c4ccco4)c(-c4ccco4)nc3c2)CC1` it was -21.3%. With `COC(C[C@H]1O[C@@H]1C(=O)COCc1ccccc1)OC`, the “hERG current change (%, negative = inhibition) at 10uM” value stood at 4.27%. In the case of `O=C(NCc1cccc(Cl)c1)c1ccc(CS(=O)Cc2ccccc2Cl)o1` (stereo not drawn) it was -3.52%; in that of `Cn1c(=O)[nH]c(=O)c2c1nc(Br)n2CCSc1nnnn1-c1ccccc1`, -7.3%. In the case of `CCOC(=O)C1CCN(C(=O)c2cc3c(ccc4ccccc43)o2)CC1`, the “hERG current change (%, negative = inhibition) at 10uM” value is -12.8%.

`O=C(NC1CCN(Cc2ccccc2)CC1)C1COc2ccccc2O1` (stereo not drawn): the “hERG current change (%, negative = inhibition) at 10uM” value is recorded as -57.5%.

Take `CC(C)(C)NC(=O)NC(=O)COc1ccc(Br)cc1Br`: the “hERG current change (%, negative = inhibition) at 10uM” value is reported as -22.1%. Regarding `CCOc1ccc(NC(=O)[C@@H]2CCCN2C(=O)c2cccs2)cc1S(=O)(=O)N1CCCCC1`, the “hERG current change (%, negative = inhibition) at 10uM” value was 10.5%. As to `C[N+](C)(CC#Cc1ccccc1)CC(=O)c1ccc(Cl)cc1`, the “hERG current change (%, negative = inhibition) at 10uM” value is listed as -28.3%. Then `O=C(Nc1ccnn1C1CCN(Cc2ccccc2)CC1)C1CCOC1` (stereo not drawn), with 18.8%; and `COc1ccc(NC(=O)c2ccc3c(c2)OCO3)cc1`, with 11.7%.

On to `COc1ccc(C(=O)Nc2sc(C)c(-c3ccccc3)c2C#N)cc1OC`, for which the “hERG current change (%, negative = inhibition) at 10uM” value was 4.11%. Then `Cc1cc(C)nc(/N=C(\N)N(Cc2ccccc2)Cc2ccccc2)n1`, with -70.6%; and `Cc1cc(NC(=O)CSc2ncc(CO)n2Cc2ccc(F)cc2)no1`, with 6.01%. As to `O=C(NCCCN=C1NS(=O)(=O)c2ccccc21)c1ccncc1`, the “hERG current change (%, negative = inhibition) at 10uM” value was -11.8%. In the case of `Brc1ccc(-c2ccc(/C=N/Nc3nc4ccccc4[nH]3)o2)cc1`, the “hERG current change (%, negative = inhibition) at 10uM” value is given as 8.63%.

In the case of `CCN1CCN(C(=O)c2ccc3c(Cl)c4c(nc3c2)CCCC4)CC1`, the “hERG current change (%, negative = inhibition) at 10uM” value turned out to be 6.65%. As to `COC(=O)CC(NC(=O)Nc1ccccc1F)c1ccc2c(c1)OCO2` (stereo not drawn), the “hERG current change (%, negative = inhibition) at 10uM” value was 18.2%. Then `O=C(NCCCN1CCOCC1)C1CCN(S(=O)(=O)c2ccccc2)CC1`, with 10.6%; and `O=C(NCc1ccccc1)C(c1cccnc1)N(C(=O)c1ccccn1)c1cccc(F)c1` (stereo not drawn), with 9.24%; and `O=C(NC(=S)Nc1cccc(NC(=S)NC(=O)c2ccco2)n1)c1ccco1`, with 25.2%. On to `N#Cc1ccccc1NC(=O)CSC1=Nc2ccccc2C2CC=NN12` (stereo not drawn), for which the “hERG current change (%, negative = inhibition) at 10uM” value came out at 1.95%. Regarding `CCCN1Cc2cccc(C(=O)Nc3ccc(-c4nc5ccccc5[nH]4)cc3)c2C1=O`, the “hERG current change (%, negative = inhibition) at 10uM” value came to 2.39%.

For the compound `COc1cc(C(=O)Nc2cccc3c2CCCC3)cc(OC)c1OC`, the “hERG current change (%, negative = inhibition) at 10uM” value is reported as 5.39%. For `Cc1ccc2[nH]c(C(=O)NN=C3CCCCC3)c(-c3ccccc3)c2c1`, the “hERG current change (%, negative = inhibition) at 10uM” value was -11.2%. In the case of `CC(C(=O)Nc1ccccc1)N(C)CCOc1ccccc1` (stereo not drawn), the “hERG current change (%, negative = inhibition) at 10uM” value is listed as -9.45%. Take `Cc1ccc(-n2nnnc2-c2cnn(-c3ccc(F)cc3)c2C(F)(F)F)cc1`: the “hERG current change (%, negative = inhibition) at 10uM” value is recorded as 11.9%. For `Nc1nc(CN2CCN(Cc3ccc4c(c3)OCO4)CC2)nc(Nc2ccccc2)n1`, the “hERG current change (%, negative = inhibition) at 10uM” value is on record as -75.6%. In the case of `CCOc1ccc(C(CC(=O)O)NC(=O)C(Sc2ccccc2)c2ccccc2)cc1` (stereo not drawn) it was 23%. As for `Cn1c(=O)c2sccc2n2c(CCCC(=O)NCCc3ccc(S(N)(=O)=O)cc3)nnc12`, the “hERG current change (%, negative = inhibition) at 10uM” value was found to be 15.6%. Turning to `CCCN1C2=NCCCN2c2ccccc21.Cl`, the “hERG current change (%, negative = inhibition) at 10uM” value was -9.58%. Then `CC1(C)CC(=O)C(N=Nc2cc(C(F)(F)F)ccc2Cl)=C(O)C1`, with 15.6%; and `Cc1cccc(NC(=O)N2CCC(NC(=O)C3CCCCC3)CC2)c1`, with 7.22%.
